{"source": "paper PMC6919601", "about": "“Identification of Plasmodium dipeptidyl aminopeptidase allosteric inhibitors by high throughput screening” (PLoS ONE, 2019)", "note": "In all, about 110,000 compounds went through this assay and about 230 (0.21%) showed an effect of 50% or more. Some of the results follow.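 Further: 30 min substrate incubation versus DMSO and 10 µM JCP410 controls.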"}
{"molecular_target": "DPAP1 (Plasmodium falciparum, UniProt Q8IIJ9)", "sequence (Q8IIJ9 whole entry, looked up)": "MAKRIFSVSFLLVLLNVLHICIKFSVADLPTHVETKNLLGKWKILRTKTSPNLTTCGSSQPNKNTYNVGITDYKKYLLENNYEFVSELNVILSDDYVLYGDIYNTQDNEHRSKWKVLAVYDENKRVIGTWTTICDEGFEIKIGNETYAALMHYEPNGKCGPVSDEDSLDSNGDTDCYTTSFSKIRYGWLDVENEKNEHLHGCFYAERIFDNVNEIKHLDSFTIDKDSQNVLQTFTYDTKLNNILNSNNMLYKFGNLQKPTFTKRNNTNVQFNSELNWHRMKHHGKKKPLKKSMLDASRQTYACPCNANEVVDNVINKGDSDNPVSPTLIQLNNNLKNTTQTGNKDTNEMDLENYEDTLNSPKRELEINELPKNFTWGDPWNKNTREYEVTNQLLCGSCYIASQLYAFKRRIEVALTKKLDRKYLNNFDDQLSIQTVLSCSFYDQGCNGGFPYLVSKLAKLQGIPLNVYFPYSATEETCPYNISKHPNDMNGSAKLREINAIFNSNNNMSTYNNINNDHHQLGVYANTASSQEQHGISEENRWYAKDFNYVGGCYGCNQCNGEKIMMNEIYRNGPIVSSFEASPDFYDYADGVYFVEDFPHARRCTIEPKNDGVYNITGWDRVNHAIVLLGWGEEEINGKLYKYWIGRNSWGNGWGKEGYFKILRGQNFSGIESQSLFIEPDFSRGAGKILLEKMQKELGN", "assay": "primary screen, percent inhibition; read by cleavage of a fluorogenic dipeptide substrate; higher = more effect of the substance", "design": "species or system P. falciparum D10 trophozoite lysates; single well", "units": {"% Inhibition @ 10 uM": "%"}}
{"smiles": "COc1ccc(N(CC(=O)Nc2cccc(Cl)c2C)S(=O)(=O)c2ccccc2)cc1", "% Inhibition @ 10 uM": 3.06}
{"smiles": "COC(=O)/C(C#N)=C/c1c(Oc2ccc(C(C)(C)C)cc2)nc2c(C)cccn2c1=O", "% Inhibition @ 10 uM": 2}
{"smiles": "CC(C)CCN1Cc2ccccc2C1", "% Inhibition @ 10 uM": -7.35}
{"smiles": "COc1ccc(S(=O)(=O)Nc2nc3c(s2)C(=O)CC(C)(C)C3)cc1", "% Inhibition @ 10 uM": -0.123}
{"smiles": "Cc1c(C(=O)Nc2cccc(Cl)c2)cnn1-c1ccccc1", "% Inhibition @ 10 uM": -2.32}
{"smiles": "CCC[C@H](NC(=O)C1(NC(=O)c2cc3ccccc3o2)CCCCC1)C(=O)c1nc2ccccc2o1", "% Inhibition @ 10 uM": 3.19}
{"smiles": "COc1ccc2c(c1)CCc1sc(NC(=O)c3ccc(C)cc3)nc1-2", "% Inhibition @ 10 uM": -0.0735}
{"smiles": "O=C(Nc1ccc2c(c1)OCCO2)c1ccc(CNS(=O)(=O)c2cccc(C(F)(F)F)c2)cc1", "% Inhibition @ 10 uM": 0.161}
{"smiles": "O=C(O)Cn1nc2c3c(cccc3c1=O)-c1ccccc1-2", "% Inhibition @ 10 uM": -3.23}
{"smiles": "CCOc1ccccc1NC=C1C(=O)N(C)C(=O)N(C)C1=O", "% Inhibition @ 10 uM": -4.41}
{"smiles": "CCOc1nc(-c2ccccc2)cc(-c2ccc(Br)cc2)n1", "% Inhibition @ 10 uM": -1.5}
{"smiles": "CC(C)C(NS(=O)(=O)c1cccc(C(=O)O)c1)C(=O)O", "note": "(stereo not drawn)", "% Inhibition @ 10 uM": 17.1}
{"smiles": "CCOC(=O)C1=C(C)N=c2s/c(=C/c3ccccc3Cl)c(=O)n2C1c1ccccc1Cl", "note": "(stereo not drawn)", "% Inhibition @ 10 uM": 3.48}
{"smiles": "COCC(C)NCc1ccc(OC)cc1", "note": "(stereo not drawn)", "% Inhibition @ 10 uM": -5.16}
{"smiles": "C=CCN1C(=O)C(NC(=O)c2ccccc2)(C(F)(F)F)N=C1Cc1ccccc1", "note": "(stereo not drawn)", "% Inhibition @ 10 uM": 2.31}
{"smiles": "COc1ccc(S(=O)(=O)Nc2ccccc2F)cc1", "% Inhibition @ 10 uM": 3.47}
{"smiles": "CC(=O)c1ccc(OCCSc2nc3c(N)ncnc3[nH]2)cc1", "% Inhibition @ 10 uM": 1.93}
{"smiles": "O=C(CN1C(=O)c2ccccc2C1=O)NC1=NCCS1", "% Inhibition @ 10 uM": 0.238}
{"smiles": "COc1cc(NC(C)=O)c(Cl)cc1NC(=O)c1ccccc1", "% Inhibition @ 10 uM": -4.96}
{"smiles": "O=C(CCNS(=O)(=O)c1ccc2nc(O)ccc2c1)N1CCCC2CCCCC21", "note": "(stereo not drawn)", "% Inhibition @ 10 uM": -1.68}
{"smiles": "CCCC(=O)c1cc2ccc(O)cc2oc1=O", "% Inhibition @ 10 uM": -2.21}
{"smiles": "Cc1cccc(NC2=C(Cl)C(=O)N(Cc3ccccc3)C2=O)c1C", "% Inhibition @ 10 uM": 2.76}
{"smiles": "CCCCN(C)C(=O)CSc1nc(NCc2ccc(OC)cc2)c2ccccc2n1", "% Inhibition @ 10 uM": 4.02}
{"smiles": "CN1CCCN(Cc2ccc(F)c(F)c2)CC1", "% Inhibition @ 10 uM": 10.6}
{"smiles": "CC(C)c1ccc(-c2nc(N3CCCC3)nc3[nH]nc(N)c23)cc1", "% Inhibition @ 10 uM": 1.94}
{"smiles": "O=C(NC1CCCC1)c1ccc(Cn2cc(Br)cn2)cc1", "% Inhibition @ 10 uM": 1.67}
{"smiles": "Cc1ccc(NS(=O)(=O)c2ccc(NC(=O)Nc3ccccc3)cc2)c(C)c1", "% Inhibition @ 10 uM": -0.473}
{"smiles": "O=C(NC1CCCCC1)c1ccccc1CCc1ccccc1", "% Inhibition @ 10 uM": 0.162}
{"smiles": "Cc1nc2c(c(C)nn2C)c(C)c1CCC(=O)NCCCN1CCCC1=O", "% Inhibition @ 10 uM": -6.09}
{"smiles": "Cn1c(=O)c2ncn(CC(=O)Nc3sc4c(c3C#N)CCCC4)c2n(C)c1=O", "% Inhibition @ 10 uM": 1.57}
{"smiles": "O=C(CSc1ccc(Cl)cc1)Nc1cccc(NC(=O)c2ccco2)c1", "% Inhibition @ 10 uM": -1.44}
{"smiles": "COc1ccccc1-c1ccc(/C=C/C(=O)c2ccco2)o1", "% Inhibition @ 10 uM": 3.47}
{"smiles": "Cc1nc2cc(NC(=O)N3CCCC3)ccc2n1C", "% Inhibition @ 10 uM": -2.74}
{"smiles": "COc1ccc(CNC23CN4CN(CN(C4)C2)C3)cc1OC", "% Inhibition @ 10 uM": -13.5}
{"smiles": "O=C(CCSc1nc2ccccc2s1)Nc1ccc(F)cc1", "% Inhibition @ 10 uM": -2.83}
{"smiles": "CCOC(=O)c1cc(CC)sc1NC(=O)c1cccs1", "% Inhibition @ 10 uM": 2.92}
{"smiles": "COc1ccccc1CC(=N)NOC(=O)c1ccc(C(C)(C)C)cc1", "% Inhibition @ 10 uM": 3.79}
{"smiles": "COc1ccccc1N1CCN(Cc2ccc([N+](=O)[O-])cc2)CC1", "% Inhibition @ 10 uM": -1.07}
{"smiles": "Cc1ccc(S(=O)(=O)n2nc(-c3cccnc3)nc2NCc2ccccc2)cc1", "% Inhibition @ 10 uM": 3.81}
{"smiles": "COc1cccc(Oc2ccc(N/C=C/C(=O)C(C)(C)C)cc2)c1", "% Inhibition @ 10 uM": 5.54}
{"smiles": "Cc1ccc(Nc2nc(-c3ccccc3)cs2)cc1Cl", "% Inhibition @ 10 uM": -0.771}
{"smiles": "Cc1ccc(C(=O)Nc2ccc(C#N)cc2)cc1Br", "% Inhibition @ 10 uM": 2.95}
{"smiles": "CCCNC(=O)CCCn1c2ccccc2c2cnnc(O)c21", "% Inhibition @ 10 uM": -7.54}
{"smiles": "CC(NS(=O)(=O)c1ccc(CN2C(=O)c3cccnc3C2=O)s1)c1ccc2c(c1)OCCO2", "note": "(stereo not drawn)", "% Inhibition @ 10 uM": -0.438}
{"smiles": "COc1nn2nnnc2c2ccccc12", "% Inhibition @ 10 uM": 0.947}
{"smiles": "COc1ccc(C(=O)c2cccc([N+](=O)[O-])c2)cc1", "% Inhibition @ 10 uM": -2.28}
{"smiles": "CCOc1cccc(C(=O)Nc2nnc(CSCc3ccccc3)s2)c1", "% Inhibition @ 10 uM": -0.142}
{"smiles": "CCn1c(Oc2ccccc2)nc2c1c(=O)n(C)c(=O)n2C", "% Inhibition @ 10 uM": 1.08}
{"smiles": "COc1ccc(C)cc1NC(=O)c1ccc(C(=O)Nc2cc(C)ccc2OC)nc1", "% Inhibition @ 10 uM": 0.661}
{"smiles": "Cc1cc(C)c(S(=O)(=O)NCC(=O)Nc2ccc3c(c2)OCCO3)c(C)c1", "% Inhibition @ 10 uM": 6.57}
{"smiles": "CCSC1=NSC2=NC(=O)/C(=C\\c3ccc(-c4cccc(C(=O)O)c4)o3)C(=N)N12", "% Inhibition @ 10 uM": 4.06}
